Tested on: patients with treatment-resistant major depressive disorder (TRD)
Experiment: Phase 1/2 clinical trial of inhaled 5-MeO-DMT in TRD patients (Part A single dose 12 or 18 mg; Part B IDR 6/12/18 mg)
Details: for patients with at least one ADR: Part A, n=4
[1] = IDR n=8, 2 hours after last dose
[2] = IDR n=8, 3 hours after last dose

COc1ccc2[nH]cc(CCN(C)C)c2c1 [5-MeO-DMT]
MADRS Concentration Difficulties improvement, sum of patients (12 mg n=4, 2 hours after dose): 9
MADRS Concentration Difficulties score, sum of patients (12 mg n=4, 2 hours after dose): 7
MADRS Inability to Feel improvement, sum of patients (12 mg n=4, 2 hours after dose): 7
MADRS Inability to Feel score, sum of patients (12 mg n=4, 2 hours after dose): 9
MADRS Inner Tension score, sum of patients (12 mg n=4, 2 hours after dose): 2
MADRS Lassitude improvement, sum of patients (12 mg n=4, 2 hours after dose): 6
MADRS Lassitude score, sum of patients (12 mg n=4, 2 hours after dose): 10
MADRS Pessimistic Thoughts improvement, sum of patients (12 mg n=4, 2 hours after dose): 8
MADRS Pessimistic Thoughts score, sum of patients (12 mg n=4, 2 hours after dose): 8
MADRS Suicidal Thoughts improvement, sum of patients (12 mg n=4, 2 hours after dose): 5
MADRS Suicidal Thoughts score, sum of patients (12 mg n=4, 2 hours after dose): 3
BPRS Blunted Affect improvement, sum of patients (12 mg n=4, 3 hours after dose): 3
BPRS Blunted Affect score, sum of patients (12 mg n=4, 3 hours after dose): 8
BPRS Emotional Withdrawal improvement, sum of patients (12 mg n=4, 3 hours after dose): 2
BPRS Guilt Feelings improvement, sum of patients (12 mg n=4, 3 hours after dose): 9
BPRS Guilt Feelings score, sum of patients (12 mg n=4, 3 hours after dose): 9
BPRS Tension improvement, sum of patients (12 mg n=4, 3 hours after dose): 5
BPRS Tension score, sum of patients (12 mg n=4, 3 hours after dose): 9
MADRS Suicidal Thoughts score, sum of patients (12 mg n=4, baseline): 8
BPRS Anxiety score, sum of patients (12 mg n=4, day 1): 6
BPRS Blunted Affect improvement, sum of patients (12 mg n=4, day 1): 5
BPRS Blunted Affect score, sum of patients (12 mg n=4, day 1): 6
BPRS Emotional Withdrawal improvement, sum of patients (12 mg n=4, day 1): 5
BPRS Emotional Withdrawal score, sum of patients (12 mg n=4, day 1): 8
BPRS Guilt Feelings score, sum of patients (12 mg n=4, day 1): 5
BPRS Tension improvement, sum of patients (12 mg n=4, day 1): 8
BPRS Tension score, sum of patients (12 mg n=4, day 1): 6
MADRS Concentration Difficulties score, sum of patients (12 mg n=4, day 1): 2
MADRS Inability to Feel score, sum of patients (12 mg n=4, day 1): 1
MADRS Inner Tension improvement, sum of patients (12 mg n=4, day 1): 10
MADRS Inner Tension score, sum of patients (12 mg n=4, day 1): 3
MADRS Lassitude score, sum of patients (12 mg n=4, day 1): 0
MADRS Pessimistic Thoughts improvement, sum of patients (12 mg n=4, day 1): 9
MADRS Pessimistic Thoughts score, sum of patients (12 mg n=4, day 1): 7
MADRS Reduced Sleep improvement, sum of patients (12 mg n=4, day 1): 2
MADRS Reduced Sleep score, sum of patients (12 mg n=4, day 1): 10
MADRS Suicidal Thoughts improvement, sum of patients (12 mg n=4, day 1): 3
MADRS Suicidal Thoughts score, sum of patients (12 mg n=4, day 1): 5
BPRS Anxiety score, sum of patients (12 mg n=4, day 7): 6
BPRS Blunted Affect improvement, sum of patients (12 mg n=4, day 7): 6
BPRS Blunted Affect score, sum of patients (12 mg n=4, day 7): 5
BPRS Emotional Withdrawal improvement, sum of patients (12 mg n=4, day 7): 7
BPRS Emotional Withdrawal score, sum of patients (12 mg n=4, day 7): 6
BPRS Guilt Feelings score, sum of patients (12 mg n=4, day 7): 5
BPRS Tension improvement, sum of patients (12 mg n=4, day 7): 8
BPRS Tension score, sum of patients (12 mg n=4, day 7): 6
MADRS Concentration Difficulties score, sum of patients (12 mg n=4, day 7): 3
MADRS Inability to Feel score, sum of patients (12 mg n=4, day 7): 1
MADRS Inner Tension improvement, sum of patients (12 mg n=4, day 7): 8
MADRS Inner Tension score, sum of patients (12 mg n=4, day 7): 5
MADRS Lassitude score, sum of patients (12 mg n=4, day 7): 3
MADRS Pessimistic Thoughts improvement, sum of patients (12 mg n=4, day 7): 8
MADRS Pessimistic Thoughts score, sum of patients (12 mg n=4, day 7): 8
MADRS Reduced Sleep improvement, sum of patients (12 mg n=4, day 7): 6
MADRS Reduced Sleep score, sum of patients (12 mg n=4, day 7): 6
MADRS Suicidal Thoughts improvement, sum of patients (12 mg n=4, day 7): 1
MADRS Suicidal Thoughts score, sum of patients (12 mg n=4, day 7): 7
MADRS Lassitude score, sum of patients [1]: 10
MADRS Pessimistic Thoughts score, sum of patients [1]: 7
MADRS Suicidal Thoughts improvement, sum of patients [1]: 8
MADRS Suicidal Thoughts score, sum of patients [1]: 3
BPRS Blunted Affect improvement, sum of patients [2]: 4
BPRS Emotional Withdrawal improvement, sum of patients [2]: 5
BPRS Emotional Withdrawal score, sum of patients [2]: 8
BPRS Guilt Feelings improvement, sum of patients [2]: 20
BPRS Tension improvement, sum of patients [2]: 5
BPRS Anxiety score, sum of patients (IDR n=8, baseline): 37
MADRS Concentration Difficulties score, sum of patients (IDR n=8, baseline): 30
MADRS Inability to Feel score, sum of patients (IDR n=8, baseline): 36
MADRS Inner Tension score, sum of patients (IDR n=8, baseline): 26
MADRS Lassitude score, sum of patients (IDR n=8, baseline): 27
MADRS Pessimistic Thoughts score, sum of patients (IDR n=8, baseline): 28
BPRS Blunted Affect improvement, sum of patients (IDR n=8, day 1): 7
BPRS Blunted Affect score, sum of patients (IDR n=8, day 1): 8
BPRS Emotional Withdrawal improvement, sum of patients (IDR n=8, day 1): 5
BPRS Emotional Withdrawal score, sum of patients (IDR n=8, day 1): 8
BPRS Tension improvement, sum of patients (IDR n=8, day 1): 5
MADRS Concentration Difficulties score, sum of patients (IDR n=8, day 1): 1
MADRS Inability to Feel score, sum of patients (IDR n=8, day 1): 2
MADRS Inner Tension improvement, sum of patients (IDR n=8, day 1): 20
MADRS Inner Tension score, sum of patients (IDR n=8, day 1): 6
MADRS Lassitude score, sum of patients (IDR n=8, day 1): 5
MADRS Pessimistic Thoughts score, sum of patients (IDR n=8, day 1): 4
MADRS Suicidal Thoughts improvement, sum of patients (IDR n=8, day 1): 10
MADRS Suicidal Thoughts score, sum of patients (IDR n=8, day 1): 1
BPRS Anxiety improvement, sum of patients (IDR n=8, day 7): 20
BPRS Blunted Affect improvement, sum of patients (IDR n=8, day 7): 7
BPRS Blunted Affect score, sum of patients (IDR n=8, day 7): 8
BPRS Emotional Withdrawal improvement, sum of patients (IDR n=8, day 7): 5
BPRS Emotional Withdrawal score, sum of patients (IDR n=8, day 7): 8
BPRS Guilt Feelings score, sum of patients (IDR n=8, day 7): 10
BPRS Tension improvement, sum of patients (IDR n=8, day 7): 6
BPRS Tension score, sum of patients (IDR n=8, day 7): 10
MADRS Concentration Difficulties score, sum of patients (IDR n=8, day 7): 9
MADRS Inability to Feel improvement, sum of patients (IDR n=8, day 7): 30
MADRS Inability to Feel score, sum of patients (IDR n=8, day 7): 6
MADRS Lassitude score, sum of patients (IDR n=8, day 7): 3
MADRS Pessimistic Thoughts score, sum of patients (IDR n=8, day 7): 3
MADRS Reduced Sleep score, sum of patients (IDR n=8, day 7): 9
MADRS Suicidal Thoughts improvement, sum of patients (IDR n=8, day 7): 8
MADRS Suicidal Thoughts score, sum of patients (IDR n=8, day 7): 3
patients with at least one ADR (12 mg): 3 of 4
patients with at least one ADR (18 mg): 3 of 4
induction of hypomania (TRD patients): no evidence of hypomania induction

— patent publication US20250213533A1 (GH RESEARCH IRELAND LIMITED, priority 2022, published 2025)
